Here are results for 26 molecules from the antibiotic and cytotoxicity screens of Wong et al. (2023).

This is one part of the list.

One assay deals with HSkMC. Kind of assay: cytotoxicity call (relative viability < 0.9). Conditions: 10 µM.
The test system of another assay is HepG2. Kind of assay: cytotoxicity call (relative viability < 0.9). To be noted: 10 µM.
In the next assay the test system is S. aureus RN4220. Description: growth inhibition call (relative growth <= 0.2). To be noted: 50 µM.

In the case of `O=c1[nH]cc(COCc2ccccc2)c(=O)[nH]1`, the cytotoxicity call in the assay with HSkMC and with HepG2 was “inactive” in each case. The growth inhibition call in the assay with S. aureus RN4220 was “inactive”.
With `COc1ccccc1S(=O)(=O)N1C[C@H](O)COC[C@H]2O[C@H](CC(=O)O)CC[C@@H]21`, the cytotoxicity call with HSkMC and in the assay on HepG2 was “inactive” in each case. Besides, the growth inhibition call in the assay on S. aureus RN4220 was “inactive”.
Regarding `CC(C)NC(=O)Nc1ccc2c(c1)C(=O)N([C@@H](C)CO)C[C@H](C)[C@H](CN(C)C(=O)C1CCCCC1)OCCCC[C@H](C)O2`, the cytotoxicity call in the assay on HSkMC and with HepG2 was “inactive” throughout. For the same molecule, the growth inhibition call in the assay with S. aureus RN4220 was “inactive”.
For the molecule `C[C@H]1CCCCO[C@@H](CN(C)Cc2ccc3c(c2)OCO3)[C@@H](C)CN([C@@H](C)CO)C(=O)c2cc(NC(=O)CCC(F)(F)F)ccc2O1`, the cytotoxicity call in the assay on HSkMC and in the assay on HepG2 was “inactive” each time. The growth inhibition call in the assay on S. aureus RN4220 is “inactive”.
Take `CCOC(=O)C(CCc1ccccc1)NC(C)C(=O)N1CCCC1C(=O)O.O=C(O)C=CC(=O)O` (stereo not drawn): the cytotoxicity call in the assay on HSkMC and in the assay on HepG2 was “inactive” in each case. Besides, in the assay on S. aureus RN4220, the growth inhibition call was “inactive”.
Turning to `C[C@H]1CN([C@@H](C)CO)C(=O)c2cc(NS(=O)(=O)c3ccccc3)ccc2O[C@@H]1CN(C)CC1CC1`, the cytotoxicity call in the assay on HSkMC and in the assay with HepG2 was “inactive” throughout. Moreover, the growth inhibition call in the assay with S. aureus RN4220 is “inactive”.
`COCC#Cc1ccc2c(c1)O[C@@H](CN(C)Cc1ccc(F)cc1)[C@@H](C)CN([C@H](C)CO)S2(=O)=O`: the cytotoxicity call in the assay with HSkMC and with HepG2 was “inactive” throughout. In addition, in the assay with S. aureus RN4220, the growth inhibition call is “inactive”.
As for `C[C@H](CO)N1C[C@H](C)[C@@H](CN(C)S(C)(=O)=O)Oc2ccc(NC(=O)CCCCCC(=O)Nc3ccccc3N)cc2CC1=O`, the cytotoxicity call in the assay on HSkMC and in the assay on HepG2 was “inactive” throughout. The growth inhibition call with S. aureus RN4220 was “inactive”.
As to `NS(=O)(=O)OC[C@H]1C[C@@H](Nc2ccnc3cc(-c4cccc(SC(F)(F)F)c4)nn23)[C@H](O)[C@@H]1O`, the cytotoxicity call with HSkMC and in the assay with HepG2 was “active” each time. In the assay with S. aureus RN4220, the growth inhibition call is “inactive”.
Consider `Cc1ccc(S(=O)(=O)C[C@H]2O[C@@H](n3cc(I)c(=O)[nH]c3=O)C[C@@H]2O)cc1`, for which the cytotoxicity call in the assay on HSkMC and in the assay with HepG2 was “inactive” each time. Also, in the assay on S. aureus RN4220, the growth inhibition call is “inactive”.
Take `CC(C)NC(=O)N[C@H]1C=C[C@H](CC(=O)O)O[C@@H]1CO`: the cytotoxicity call with HSkMC and in the assay on HepG2 was “inactive” in each case. Besides, the growth inhibition call with S. aureus RN4220 is “inactive”.
On to `Cc1ccccc1-n1ccc(=O)[nH]c1=O`, for which the cytotoxicity call with HSkMC and in the assay with HepG2 was “inactive” each time. For the same molecule, in the assay on S. aureus RN4220, the growth inhibition call was “inactive”.
Take `COC[C@@H]1CNN1C(=O)c1cc(C)oc1C`: the cytotoxicity call in the assay on HSkMC and in the assay on HepG2 was “inactive” throughout. In addition, the growth inhibition call in the assay on S. aureus RN4220 was “inactive”.
Regarding `COCC(=O)N(C)C[C@H]1Oc2cc(-c3ccc(OC)cc3)ccc2S(=O)(=O)N([C@H](C)CO)C[C@H]1C`, the cytotoxicity call in the assay on HSkMC and in the assay on HepG2 was “inactive” throughout. Also, the growth inhibition call in the assay on S. aureus RN4220 was “inactive”.
Take `CC(C)NC(=O)Nc1ccc2c(c1)CC(=O)N([C@H](C)CO)C[C@@H](C)[C@H](CN(C)C(=O)Nc1ccc3c(c1)OCO3)O2`: the cytotoxicity call in the assay on HSkMC and with HepG2 was “inactive” in each case. Besides, the growth inhibition call in the assay on S. aureus RN4220 was “inactive”.
Regarding `COc1ccc(CN(C)C[C@@H]2OCCCC[C@H](C)Oc3ccc(NS(=O)(=O)c4c(C)noc4C)cc3C(=O)N([C@@H](C)CO)C[C@H]2C)cc1`, the cytotoxicity call in the assay with HSkMC and in the assay on HepG2 was “inactive” in each case. Moreover, the growth inhibition call in the assay on S. aureus RN4220 is “inactive”.
Regarding `CO[C@@H]1CN(C)C(=O)c2cc(NC(=O)C3CCCCC3)ccc2OC[C@@H](C)N(C(=O)Nc2ccc(C(F)(F)F)cc2)C[C@H]1C`, the cytotoxicity call in the assay on HSkMC and in the assay with HepG2 was “inactive” each time. Besides, the growth inhibition call with S. aureus RN4220 is “inactive”.
As to `O=C(N[C@@H]1CC[C@H](CC(=O)N2CCOCC2)O[C@@H]1CO)c1ccc2c(c1)OCO2`, the cytotoxicity call with HSkMC and in the assay on HepG2 was “inactive” throughout. The growth inhibition call in the assay with S. aureus RN4220 was “inactive”.
Turning to `COc1ccc(NC(=O)N(C)C[C@@H]2Oc3ccc(NC(=O)CCCCCC(=O)Nc4ccccc4N)cc3C(=O)N([C@H](C)CO)C[C@@H]2C)cc1`, the cytotoxicity call in the assay on HSkMC was “inactive”. Moreover, the cytotoxicity call with HepG2 is “active”. In addition, the growth inhibition call in the assay on S. aureus RN4220 was “inactive”.
Take `C[C@@H]1CN([C@H](C)CO)C(=O)c2cc(NC(=O)CCCN(C)C)ccc2O[C@H]1CN(C)Cc1ccc(Oc2ccccc2)cc1`: in the assay with HSkMC, the cytotoxicity call is “inactive”. The cytotoxicity call in the assay on HepG2 was “active”. For the same molecule, the growth inhibition call in the assay with S. aureus RN4220 is “inactive”.
For the molecule `C[C@H]1CCCCO[C@H](CN(C)C(=O)Nc2cccc3ccccc23)[C@@H](C)CN([C@@H](C)CO)C(=O)c2cc(NC(=O)Cc3ccccc3)ccc2O1`, the cytotoxicity call in the assay on HSkMC and with HepG2 was “inactive” each time. Further, the growth inhibition call with S. aureus RN4220 is “inactive”.
Regarding `CCOC(=O)[C@H]1C/C=C/C[C@H](C(=O)OCC)C(=O)O[C@H]2[C@@H](OC)O[C@H](CO)[C@@H](OC(=O)Nc3ccc(Br)cc3)[C@@H]2OC1=O`, the cytotoxicity call in the assay with HSkMC and in the assay on HepG2 was “active” throughout. For the same molecule, the growth inhibition call with S. aureus RN4220 is “inactive”.
Turning to `Cc1ccc(S(=O)(=O)N(C)C[C@H]2Oc3ccc(NS(=O)(=O)c4ccc(F)cc4)cc3C(=O)N([C@H](C)CO)C[C@H]2C)cc1`, the cytotoxicity call in the assay on HSkMC and in the assay with HepG2 was “inactive” throughout. Further, the growth inhibition call in the assay on S. aureus RN4220 is “inactive”.
In the case of `C[C@@H]1CN([C@H](C)CO)C(=O)c2cc(NS(=O)(=O)c3ccccc3)ccc2O[C@@H](C)CCCCO[C@@H]1CN(C)Cc1ccc2c(c1)OCO2`, the cytotoxicity call in the assay with HSkMC is “inactive”. Besides, in the assay on HepG2, the cytotoxicity call is “active”. Further, in the assay with S. aureus RN4220, the growth inhibition call is “inactive”.
As to `Cn1cnc(S(=O)(=O)N[C@@H]2C=C[C@@H](CC(=O)N3CCN(c4ccccc4)CC3)O[C@@H]2CO)c1`, the cytotoxicity call in the assay on HSkMC (human skeletal muscle cells) and with HepG2 was “inactive” throughout. In addition, the growth inhibition call in the assay with S. aureus RN4220 is “inactive”.
`O=C(Cc1ccncc1)Nc1ccc2c(c1)[C@@H]1C[C@H](CC(=O)N3CCc4ccccc4C3)O[C@@H](CO)[C@@H]1O2`: the cytotoxicity call in the assay with HSkMC and in the assay on HepG2 was “inactive” throughout. Moreover, the growth inhibition call in the assay on S. aureus RN4220 was “inactive”.
